Test results reported in PubChem BioAssay AID493208 (National Center for Advancing Translational Sciences (NCATS), 2011).
In all, about 44,000 compounds went through this assay and about 340 (0.77%) were called active. About 5% were inconclusive and are not listed. Calls come from the whole dose curve; as a rule, active = well fitted inhibition curve with a large enough effect; inconclusive = small, poorly fitted or top-dose-only effect; inactive = flat fitted curve, though single readings scatter. The list shows a part of the results.

Test: Acumen qHTS Assay for Inhibitors of the mTORC1 Signaling Pathway in MEF (Tsc2-/-, p53-/-) Cells: Sytravon; note: nearly all actives have a fitted effect of over 50% in size;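 for activity change, negative = inhibition: plate controls were DMSO for no effect and rapamycin for full effect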
Details: phospho-rpS6 immunofluorescence/PI, 24 h; series mostly up to 38.3 µM; activity change, negative = inhibition: at the top concentration
Method in brief: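 Read-out: phospho-S6 Alexa-488 intensity over PI intensity per well, scored as % active cells using thresholds from rapamycin (7.5 nM) and DMSO controls. Tsc2-/-, p53-/- MEFs exposed to compound for 24 h; PI cell count recorded as viability.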
Potency is the fitted concentration of half-maximal effect.

| Structure (SMILES) | activity change, negative = inhibition | Potency |
| --- | --- | --- |
| Cc1ccc(NS(=O)(=O)c2c(C)nc3sccn3c2=O)c(Cl)c1 | inactive: -0.0219% | – |
| COc1cc(Cl)c(NC(=O)CC(C)S(=O)(=O)c2cc3c(cc2C)NC(=O)CO3)c(OC)c1 (stereo not given) | inactive: 1.11% | – |
| Cc1ccc(NC(=O)CSc2nncn3c2cc2sccc23)cc1F | inactive: 1.74% | – |
| CC(C)c1ccc(NC(=O)c2cc(S(=O)(=O)N3CCc4ccccc4C3)ccc2F)cc1 | inactive: -8.5% | – |
| Cc1nn(-c2ccc(N3CCCC3)nn2)c(C)c1CCC(=O)Nc1ccccc1 | inactive: -6.16% | – |
| CCCCOC(=O)c1ccc(NC2=NS(=O)(=O)c3ccccc32)cc1 | inactive: 0.284% | – |
| Cc1cccc(NC(=O)CCn2nc(C)c3c(C)n(-c4ccccc4)nc3c2=O)c1C | inactive: 0% | – |
| Cc1ccc(-c2nc3n(n2)C(=O)CC(c2ccc(C)cc2)S3)cc1 (stereo not given) | inactive: -1.5% | – |
| COc1ccc(S(=O)(=O)NCc2ccc3c(c2)CCN3C(C)=O)cc1OC | inactive: 4.22% | – |
| Cc1ccc(NC(=O)CCS(=O)(=O)c2ccc3nc(C)sc3c2)c(C)c1 | inactive: -3.64% | – |
| CCOc1ccc(CN2C(=O)c3ccccc3Sc3ccc(C(=O)NCCCN4CCOCC4)cc32)cc1 | inactive: -12.5% | – |
| CCOc1ccc(S(=O)(=O)N(CC(=O)NCCc2ccc(OC)cc2)c2ccccc2)cc1 | inactive: -16.1% | – |
| COc1ccccc1N1CCN(c2c(CN3CCCC3)c(=O)oc3ccccc23)CC1 | inactive: -7.07% | – |
| Cc1ccc(OCC(=O)N(Cc2nc(-c3ccccc3)no2)C(C)C)cc1C | inactive: -8% | – |
| Cc1ccc(S(=O)(=O)N2CCCc3cc(NS(=O)(=O)c4ccccc4)ccc32)cc1 | inactive: 16% | – |
| CCOc1ccc(C(=O)Nc2ccc(NC(=O)c3ccccc3)cc2)cc1Br | inactive: -0.868% | – |
| CCOC(=O)c1ccc(N2CCN(c3ccc(F)cc3)CC2)c(NC(=O)Nc2ccc(CC)cc2)c1 | inactive: 6.05% | – |
| CCOC(=O)CNC(=O)Nc1cc(C(=O)NCc2ccc(C(C)C)cc2)ccc1N1CCCC1 | inactive: 9.66% | – |
| Cc1ccc2[nH]c(=O)c3cc(C(=O)NCc4cccc(Cl)c4)sc3c2c1 | inactive: -13.2% | – |
| Cc1cc(OCC(=O)Nc2sc3c(c2C#N)CCC(C)C3)ccc1Cl (stereo not given) | inactive: 6.29% | – |

| Structure (SMILES) | activity change, negative = inhibition | Potency |
| --- | --- | --- |
| COc1ccccc1-c1noc(CSc2nnc(-c3ccccc3)n2-c2ccc(C)c(C)c2)n1 | inactive: -10.2% | – |
| Cc1cc(C)c(/C=C/c2onc(C)c2S(=O)(=O)N2CCC(C(=O)Nc3cccc(C)c3C)CC2)c(C)c1 | inactive: 2.85% | – |
| CC(=O)c1ccc(NC(=O)CSc2nc(-c3ccccc3C)nc3c2c(=O)n(C)c(=O)n3C)cc1 | inactive: -12.8% | – |
| CCOC(=O)c1c(C)oc2nc(C)nc(N(C)Cc3ccccc3)c12 | inactive: 0.713% | – |
| CCOc1ccc(C(=O)c2cn(Cc3cccc(OC)c3)c3cc4c(cc3c2=O)OCO4)cc1 | inactive: 3.57% | – |
| O=C(CSc1ncc(-c2ccc(Cl)cc2)[nH]1)Nc1ccccc1F | inactive: 3.58% | – |
| O=C(C1CCCN(S(=O)(=O)c2cccc3nonc23)C1)N1CCN(c2cccc(C(F)(F)F)c2)CC1 (stereo not given) | inactive: -2.83% | – |
| COc1cc2c(cc1OC)C(CC(=O)O)N(C(=O)Nc1cc(OC)c(OC)c(OC)c1)CC2 (stereo not given) | inactive: 3.29% | – |
| Cc1ccc(C)c(N2CCN(CCCNC(=O)c3ccc4nc(N5CCC(C)CC5)sc4c3)CC2)c1 | inactive: 0.721% | – |
| CCc1ccc(C2=NN(CCC(=O)NCCc3ccccc3)C(=O)CC2)cc1 | inactive: -3.43% | – |
| CCc1c(C)c2cc3c(c(C)c2oc1=O)OCN(CCc1ccc(OC)c(OC)c1)C3 | inactive: -4.69% | – |
| COc1ccc(-n2c(=O)c3c4c(sc3n(Cc3ccccc3C)c2=O)CCCC4)c(OC)c1 | inactive: -19.2% | – |
| CC(=O)c1ccc(Nc2cc(C)nc3nc(Cc4ccccc4)nn23)cc1 | inactive: 0.234% | – |
| COc1ccc(N(CC(=O)NCCc2ccccc2)S(=O)(=O)c2c(C)nn(C)c2C)cc1 | inactive: 0.718% | – |
| CCCn1c2ccccc2c2cnn(CC(=O)Nc3cc(OC)c(OC)c(OC)c3)c(=O)c21 | inactive: -1.87% | – |
| CCC1(C)CC(=O)c2c(ccc3oc(C(=O)Nc4ccc(C(C)=O)cc4)c(C)c23)O1 (stereo not given) | inactive: -0.39% | – |
| CCOc1ccc(C(=O)NCCc2csc(-c3cccc(C)c3)n2)cc1 | inactive: -13.3% | – |
| CCc1nc2ccc(C(=O)N3CCN(c4cccc(Cl)c4)CC3)cc2nc1CC | inactive: 1.85% | – |
| CC(C)c1ccc(Nc2sc(C(=O)c3ccccc3)c(N)c2S(=O)(=O)c2ccccc2)cc1 | inactive: 1.58% | – |
| CC(C)CC(=O)Nc1nnc(S(=O)(=O)N2c3ccccc3CC2C)s1 (stereo not given) | inactive: 3.59% | – |

| Structure (SMILES) | activity change, negative = inhibition | Potency |
| --- | --- | --- |
| Cc1ccc(N2CCN(C(=O)Cn3ncc4c([nH]c5ccc(C)cc54)c3=O)CC2)c(C)c1 | inactive: 1.38% | – |
| CCc1ccc(C(=O)COC(=O)C(NC(=O)C2CCC(C)CC2)C(C)C)cc1 (stereo not given) | inactive: -5.05% | – |
| CCOCCOC(=O)c1ccc2c(c1)N(Cc1ccccc1C#N)C(=O)c1ccccc1S2(=O)=O | inactive: 3.89% | – |
| CCN(c1ccccc1)S(=O)(=O)c1ccc(NC(=O)c2nc(S(C)(=O)=O)ncc2Cl)cc1 | – | active: 3.29 µM |
| CCOc1ccc(CCNC(=O)CCCn2c(=O)c3cccn3c3cccnc32)cc1 | inactive: 0.126% | – |
| COc1cc(CNC(=O)c2cnc3c(-c4cccc(C)c4)c(C)nn3c2C)cc(OC)c1OC | inactive: -14.1% | – |
| COc1ccc(-c2cc3ccc(O)c(CN4CCN(C)CC4)c3oc2=O)cc1OC | inactive: -20.9% | – |
| CC(=O)Nc1ccc(Nc2ccc3cc(S(=O)(=O)N4CCCCC4)ccc3n2)cc1 | inactive: 2.31% | – |
| O=C(NC1CC(=O)N(c2ccc(Cl)cc2)C1)c1cc2ccccc2o1 (stereo not given) | inactive: -5.6% | – |
| CCCc1ccc(OCC(=O)Nc2sc3c(c2C(=O)OCC)CCC(C(C)(C)C)C3)cc1 (stereo not given) | inactive: -7.99% | – |
| Nc1cc(=O)nc(SCC(=O)Nc2ccccc2)n1CCc1ccccc1 | inactive: 0.252% | – |
| COc1ccc2c(c1)c1c(c(=O)n(-c3cccc(C)c3)c(=O)n1CC(=O)NCCC1=CCCCC1)n2C | inactive: -14% | – |
| COc1ccccc1Nc1nc(-c2ccccc2)c(CC(=O)O)s1 | inactive: 0.921% | – |
| CCOC(=O)c1c(-c2ccc(OC)c(OC)c2)csc1NC(=O)c1ccccc1F | inactive: -6.23% | – |
| Cc1cccc(CNS(=O)(=O)c2ccc(-c3coc(C)n3)cc2)c1 | inactive: -5.56% | – |
| O=c1c2cccnc2n(Cc2cccc(F)c2)c(=O)n1Cc1ccc(F)cc1 | inactive: -1.11% | – |
| COc1ccc2[nH]cc(CCNC(=O)Nc3cc(C)cc(C)c3)c2c1 | inactive: -2.41% | – |
| CCC(Nc1ccc(-c2nc(-c3cccnc3)no2)cc1[N+](=O)[O-])c1ccccc1 (stereo not given) | inactive: 1.97% | – |
| Cc1ccccc1OCC(=O)Nc1ccc2nc(SCC(=O)N3CCCC3)sc2c1 | inactive: -1.44% | – |
| O=C1Cc2cc(S(=O)(=O)Nc3ccc(OC(F)(F)F)cc3)cc3c2N1CCC3 | inactive: -3.02% | – |
